Test results published in paper PMC7933254.
No constants are given. Whether binding was seen depends on the method and setting. For part of these data: Binding seen in cells or lysates may run through a third protein. Some binding calls cover weakened binding; strength is not graded here. One block for each substance: values may come before it.

The chains behind the UniProt entries cited, without tags or fusion partners. Where a name states a change or a piece, a line headed by the entry shows the natural chain unless it says otherwise. A line that says so, or that is headed by a name, gives the form on record, which may keep a tag or linker. Residues count along the entry.
UniProt P61586: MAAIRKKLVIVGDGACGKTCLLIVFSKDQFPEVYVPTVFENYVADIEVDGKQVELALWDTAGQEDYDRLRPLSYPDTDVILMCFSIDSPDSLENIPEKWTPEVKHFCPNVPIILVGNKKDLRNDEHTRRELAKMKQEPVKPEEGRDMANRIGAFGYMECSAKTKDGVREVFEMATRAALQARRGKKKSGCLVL
UniProt Q9BY11: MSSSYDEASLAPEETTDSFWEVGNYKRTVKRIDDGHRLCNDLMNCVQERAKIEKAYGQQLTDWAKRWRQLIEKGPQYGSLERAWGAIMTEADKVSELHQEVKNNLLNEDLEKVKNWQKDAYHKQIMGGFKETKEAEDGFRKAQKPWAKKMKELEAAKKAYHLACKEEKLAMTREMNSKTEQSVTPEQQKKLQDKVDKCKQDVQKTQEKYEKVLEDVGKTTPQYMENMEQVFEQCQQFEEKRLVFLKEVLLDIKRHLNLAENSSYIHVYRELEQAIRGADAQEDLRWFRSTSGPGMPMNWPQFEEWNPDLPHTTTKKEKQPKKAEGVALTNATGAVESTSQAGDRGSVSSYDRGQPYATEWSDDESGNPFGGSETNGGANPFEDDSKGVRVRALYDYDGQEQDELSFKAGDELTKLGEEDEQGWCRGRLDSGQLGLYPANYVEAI
UniProt P60953: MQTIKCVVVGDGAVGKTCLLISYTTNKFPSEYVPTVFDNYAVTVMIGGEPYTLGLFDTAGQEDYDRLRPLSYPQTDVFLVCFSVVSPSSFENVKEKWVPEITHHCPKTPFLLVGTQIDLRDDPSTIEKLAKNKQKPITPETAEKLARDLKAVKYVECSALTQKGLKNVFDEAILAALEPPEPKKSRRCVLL
UniProt Q9EPK8: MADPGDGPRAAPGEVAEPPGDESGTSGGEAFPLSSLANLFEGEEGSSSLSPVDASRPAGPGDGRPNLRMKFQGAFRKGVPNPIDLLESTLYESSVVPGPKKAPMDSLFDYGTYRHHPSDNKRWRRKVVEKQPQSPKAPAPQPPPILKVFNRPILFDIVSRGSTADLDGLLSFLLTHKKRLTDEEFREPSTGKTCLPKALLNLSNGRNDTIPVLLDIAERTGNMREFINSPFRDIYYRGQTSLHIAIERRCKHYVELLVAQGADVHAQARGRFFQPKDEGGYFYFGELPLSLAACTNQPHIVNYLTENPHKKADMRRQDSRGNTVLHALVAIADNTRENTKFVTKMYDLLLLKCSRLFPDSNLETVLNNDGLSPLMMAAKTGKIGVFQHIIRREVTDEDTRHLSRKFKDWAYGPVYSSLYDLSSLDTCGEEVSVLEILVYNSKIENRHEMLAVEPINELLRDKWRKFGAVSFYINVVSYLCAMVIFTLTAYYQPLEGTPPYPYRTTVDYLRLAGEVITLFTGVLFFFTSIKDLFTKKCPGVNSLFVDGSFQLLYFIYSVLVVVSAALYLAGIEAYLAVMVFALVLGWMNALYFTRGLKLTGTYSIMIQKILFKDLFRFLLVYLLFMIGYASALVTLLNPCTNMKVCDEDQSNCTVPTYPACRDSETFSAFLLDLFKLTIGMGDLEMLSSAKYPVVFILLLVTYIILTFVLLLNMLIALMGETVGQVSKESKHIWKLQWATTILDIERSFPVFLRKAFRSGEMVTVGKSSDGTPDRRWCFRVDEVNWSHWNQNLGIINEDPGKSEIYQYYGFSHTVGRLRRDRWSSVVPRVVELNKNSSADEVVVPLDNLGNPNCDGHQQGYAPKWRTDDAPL
UniProt Q9HBA0: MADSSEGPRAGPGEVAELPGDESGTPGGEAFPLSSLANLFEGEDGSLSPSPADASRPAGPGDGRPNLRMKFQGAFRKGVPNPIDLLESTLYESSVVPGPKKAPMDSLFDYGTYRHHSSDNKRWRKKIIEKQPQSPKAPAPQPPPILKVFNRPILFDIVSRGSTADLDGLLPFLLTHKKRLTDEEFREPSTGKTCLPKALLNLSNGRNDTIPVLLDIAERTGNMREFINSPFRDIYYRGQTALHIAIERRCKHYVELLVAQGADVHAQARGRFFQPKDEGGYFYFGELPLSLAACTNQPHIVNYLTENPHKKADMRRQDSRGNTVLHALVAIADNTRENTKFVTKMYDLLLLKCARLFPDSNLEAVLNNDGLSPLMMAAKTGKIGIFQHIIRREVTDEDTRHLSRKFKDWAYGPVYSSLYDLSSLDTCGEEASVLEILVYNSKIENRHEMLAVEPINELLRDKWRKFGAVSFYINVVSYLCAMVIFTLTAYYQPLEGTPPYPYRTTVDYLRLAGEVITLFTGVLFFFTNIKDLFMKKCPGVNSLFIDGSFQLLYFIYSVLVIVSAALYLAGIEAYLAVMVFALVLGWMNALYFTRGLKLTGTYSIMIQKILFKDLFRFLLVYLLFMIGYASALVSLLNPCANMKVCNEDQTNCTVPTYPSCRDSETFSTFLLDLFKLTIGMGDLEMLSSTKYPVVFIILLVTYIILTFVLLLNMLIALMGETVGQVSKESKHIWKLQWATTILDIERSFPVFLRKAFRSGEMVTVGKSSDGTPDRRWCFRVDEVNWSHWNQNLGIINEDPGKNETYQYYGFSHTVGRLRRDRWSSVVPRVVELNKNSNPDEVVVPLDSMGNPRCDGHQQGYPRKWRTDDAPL
recombinant human TRPV4 ankyrin repeat domain, wild type (hV4-ARD-WT): residues 148-397 of Q9HBA0
TRPV4 121AAWAA125 (PI(4,5)P2 binding domain mutant) (Q9HBA0, form named): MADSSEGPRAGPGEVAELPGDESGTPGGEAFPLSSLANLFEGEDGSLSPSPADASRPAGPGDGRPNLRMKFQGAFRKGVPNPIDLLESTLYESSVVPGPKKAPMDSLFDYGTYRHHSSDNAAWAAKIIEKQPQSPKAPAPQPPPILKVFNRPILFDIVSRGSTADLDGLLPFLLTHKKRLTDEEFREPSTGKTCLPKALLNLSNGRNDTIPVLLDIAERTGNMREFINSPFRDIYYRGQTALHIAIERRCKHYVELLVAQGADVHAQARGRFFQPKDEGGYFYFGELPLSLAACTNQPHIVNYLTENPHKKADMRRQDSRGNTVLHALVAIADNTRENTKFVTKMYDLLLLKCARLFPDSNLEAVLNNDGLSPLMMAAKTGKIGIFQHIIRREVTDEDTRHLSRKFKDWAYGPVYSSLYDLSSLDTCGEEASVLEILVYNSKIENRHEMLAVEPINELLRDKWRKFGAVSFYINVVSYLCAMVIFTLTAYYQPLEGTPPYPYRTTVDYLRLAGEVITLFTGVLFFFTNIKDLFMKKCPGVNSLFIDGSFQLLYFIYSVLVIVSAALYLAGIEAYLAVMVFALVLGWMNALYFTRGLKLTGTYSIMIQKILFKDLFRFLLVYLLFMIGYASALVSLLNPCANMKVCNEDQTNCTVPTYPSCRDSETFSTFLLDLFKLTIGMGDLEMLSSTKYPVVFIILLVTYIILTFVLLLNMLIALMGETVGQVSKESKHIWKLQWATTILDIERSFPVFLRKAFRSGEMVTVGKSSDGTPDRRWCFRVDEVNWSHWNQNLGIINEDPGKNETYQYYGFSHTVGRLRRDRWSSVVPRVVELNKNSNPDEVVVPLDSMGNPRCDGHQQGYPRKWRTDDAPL
UniProt Q9QUI0: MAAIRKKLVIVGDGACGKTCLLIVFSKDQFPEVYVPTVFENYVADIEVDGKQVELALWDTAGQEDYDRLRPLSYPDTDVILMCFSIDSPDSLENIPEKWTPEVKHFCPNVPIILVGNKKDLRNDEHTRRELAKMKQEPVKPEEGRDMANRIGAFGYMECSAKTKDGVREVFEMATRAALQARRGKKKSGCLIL

Experiments:
[1] = target: WT RhoA-GFP, expressed in MN-1 cells (UniProt P61586); experiment: co-IP; MN-1 cells transfected with TRPV4-FLAG and TRPV4-GFP constructs (WT or neuropathy mutant) as well as RhoA-GFP; immunoprecipitated TRPV4-FLAG quantified by densitometry
[2] = target: PACSIN1-Myc (UniProt Q9BY11); experiment: co-IP; co-immunoprecipitations shown only in supplementary figures (2b, 2e, 3f, 3g); transfected cells, cell line and antibodies not told in the main text
[3] = target: Q63L RhoA-GFP, expressed in MN-1 cells (UniProt P61586); experiment: co-IP; MN-1 cells transfected with tagged TRPV4 and tagged GTPase; IP Lysis Buffer (25 mM Tris-HCl pH 7.4, 150 mM NaCl, 1% NP-40, 1 mM EDTA, 5% glycerol, with or without 10 mM MgCl2); anti-GFP or anti-FLAG antibody on Protein G Dynabeads, 1 h, 4 °C; some panels with HC067 (0.5 µM), excess GDP or GTPγS
[4] = target: E47A RhoA-GFP, expressed in MN-1 cells (UniProt P61586); experiment: as above
[5] = target: Cdc42-Myc (UniProt P60953); experiment: as above
[6] = target: WT RhoA-GFP, expressed in MN-1 cells (UniProt P61586); experiment: as above
[7] = target: E54A RhoA-GFP, expressed in MN-1 cells (UniProt P61586); experiment: as above
[8] = target: T19N RhoA-GFP, expressed in MN-1 cells (UniProt P61586); experiment: as above
[9] = target: endogenous TRPV4 of mouse choroid plexus (mouse (endogenous in choroid plexus)) (UniProt Q9EPK8); experiment: co-IP; mouse choroid plexus lysate; anti-TRPV4 polyclonal antibody (Abcam ab39260) or nonspecific rabbit IgG, 24 h, 4 °C
[10] = target: WT RhoA-GFP, expressed in MN-1 cells (UniProt P61586); experiment: co-IP; co-immunoprecipitations shown only in supplementary figures (2b, 2e, 3f, 3g); transfected cells, cell line and antibodies not told in the main text
[11] = target: RhoA-Q63L-Myc, immunopurified from HEK293T cells (UniProt P61586); experiment: pull-down; RhoA-WT-Myc or RhoA-Q63L-Myc immunopurified from HEK293T cells, incubated with 10 µg purified hV4-NTD; both purified
[12] = target: R269C TRPV4-FLAG, stably and inducibly expressed in T-Rex-TRPV4^R269C cells (human) (UniProt Q9HBA0); experiment: co-IP; T-Rex-TRPV4 cells induced with tetracycline (15 ng/ml); anti-FLAG immunoprecipitation, endogenous RhoA detected; some panels with HC067, hypotonic saline (5 min) or GSK101
[13] = target: TRPV4-FLAG (wild type), stably and inducibly expressed in T-Rex-TRPV4^WT cells (human) (UniProt Q9HBA0); experiment: as above
[14] = target: recombinant human TRPV4 ankyrin repeat domain, wild type (hV4-ARD-WT) (human) (UniProt Q9HBA0); experiment: pull-down; purified hV4-ARD-His bound to NiNTA beads, incubated with lysate from cells expressing RhoA-GFP; only the target purified

binding [1]: binds | binding [2]: binds | binding [3]: no binding | binding [4]: binds | binding [5]: no binding | binding [6]: binds | binding [7]: no binding | binding [8]: binds
Substance: TRPV4-FLAG (wild type), expressed in MN-1 cells (from UniProt Q9HBA0 1-871)

binding [6]: binds
Substance: TRPV4-I331F-FLAG, expressed in MN-1 cells (from UniProt Q9HBA0 1-871)

binding [2]: binds
Substance: TRPV4-R237L-FLAG, expressed in MN-1 cells (from UniProt Q9HBA0 1-871)

binding [9]: binds
Substance: endogenous RhoA of mouse choroid plexus (from UniProt Q9QUI0 1-193)

binding [10]: binds
Substance: TRPV4 121AAWAA125 (PI(4,5)P2 binding domain mutant) (from UniProt Q9HBA0 1-871)

binding [6]: binds
Substance: TRPV4-FLAG M680K with skeletal dysplasia mutation I331F, expressed in MN-1 cells (from UniProt Q9HBA0 1-871)

binding [10]: binds
Substance: TRPV4 P142A/P143L (proline-rich domain mutant) (from UniProt Q9HBA0 1-871)

binding [6]: binds
Substance: TRPV4-FLAG M680K with skeletal dysplasia mutation D333G, expressed in MN-1 cells (from UniProt Q9HBA0 1-871)

binding [6]: binds
Substance: TRPV4-D333G-FLAG, expressed in MN-1 cells (from UniProt Q9HBA0 1-871)

Substance: recombinant human TRPV4 N-terminal domain (hV4-NTD) (from UniProt Q9HBA0 2-397) (domain or fragment)
binding [11]: no binding (tested: 10 µg purified hV4-NTD)

binding [6]: binds
Substance: TRPV4-M680K-FLAG, expressed in MN-1 cells (from UniProt Q9HBA0 1-871)

binding [12]: no binding | binding [13]: binds
Substance: endogenous RhoA of HEK293T / T-Rex-TRPV4 cells (from UniProt P61586 1-193)

binding [14]: binds
Substance: RhoA-GFP in lysate of cells expressing RhoA-GFP (cell line not stated) (from UniProt P61586 1-193)
